{"source": "PubChem BioAssay AID662", "about": "(National Center for Advancing Translational Sciences (NCATS), 2007)", "experiment": "Cell signaling CRE-BLA (Fsk stim); as to activity change, negative = inhibition: % of control where 0% means no effect", "conditions": "CHO CRE-bla reporter (cAMP response element driving beta-lactamase), forskolin EC10, beta-lactamase ratio", "how_it_was_run": "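Forskolin analogue NKH 477 at EC10 stimulated CRE-driven beta-lactamase in CHO cells alongside compound dilution series. Beta-lactamase was measured with CCF4, excitation 405 nm, emission ratio 460/530 nm.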", "key": {"[1]": {"conditions": "activity change, negative = inhibition: at 38.2 µM (top of the series) unless noted"}}, "note": "Several values for one entry are separate records, joined by “and”; a condition that tells them apart may be missing. Identical values can stand only once. The whole screen tested about 71,000 compounds, of which about 1,800 (2.5%) were called active. Inconclusive results, whose numbers are uncertain, are shown with a selection of clear calls. Calls follow the shape of the dose curve; as a rule, active = well fitted activation curve with a large enough effect in the signal ratio, with a control signal flat (not every such curve was filed as active); inconclusive = small, poorly fitted or top-dose-only effect, or effect the other way, or a change in a side signal; inactive = flat fitted curve, though single readings scatter; the % refers to the signal ratio. Where the call is inconclusive, the potency comes from a doubtful curve fit. Potency is read from the fitted curve at half-maximal effect; tags tell the direction and shape of the fitted curve.", "data": [{"smiles": "CC(C)Nc1ccc(Nc2ccccc2)cc1", "values": [{"measurement": "Potency", "setting": "[1]", "value": "inconclusive: 25.1 µM [rising, single point]"}]}, {"smiles": "O=C(Cc1ccccc1)N1CCN(Cc2c[nH]c3ccccc23)CC1", "values": [{"measurement": "activity change, negative = inhibition", "setting": "[1]", "value": "inconclusive: -8.45%"}]}, {"smiles": "C=CC(=O)OCCO", "values": [{"measurement": "activity change, negative = inhibition", "setting": "[1]", "value": "inconclusive: -13%"}]}, {"smiles": "O=P(O)(O)Cc1ccccc1OP(=O)(c1ccccc1)c1ccccc1", "values": [{"measurement": "activity change, negative = inhibition", "setting": "[1]", "value": "inconclusive: 1.86%"}]}, {"smiles": "Oc1cc(Cl)c(Cl)c(Cl)c1Cl", "values": [{"measurement": "Potency", "setting": "[1]", "value": "inconclusive: 25.1 µM [falling, single point]"}]}, {"smiles": "Cc1ccc(N2C(=O)NC(=O)C3(Cc4ccccc4N4CCCC43)C2=O)cc1", "note": "(configuration not stated)", "values": [{"measurement": "activity change, negative = inhibition", "setting": "[1]", "value": "inactive"}]}, {"smiles": "O=C(c1ccc2nc(-c3ccco3)c(-c3ccco3)nc2c1)N1CCC2(CC1)OCCO2", "values": [{"measurement": "Potency", "setting": "[1]", "value": "inconclusive: 5.01 µM [rising, single point]"}]}, {"smiles": "C[As+](C)(c1ccc(Br)c([N+](=O)[O-])c1)c1ccc(Br)c([N+](=O)[O-])c1.O=[N+]([O-])O", "values": [{"measurement": "activity change, negative = inhibition", "setting": "[1]", "value": "inactive: -9.68% [at 7.6 µM]"}]}, {"smiles": "COC(=O)[C@@]1(Cc2ccccc2)[C@H]2c3cc(C(=O)N(C)C)[nH]c3C[C@H]2CN1C(=O)c1ccccc1", "values": [{"measurement": "Potency", "setting": "[1]", "value": "inconclusive: 12.6 µM [falling, partial curve]"}]}, {"smiles": "CC(=NCc1cccnc1)c1c(O)n(Cc2ccccc2)c(=O)[nH]c1=O", "values": [{"measurement": "Potency", "setting": "[1]", "value": "inconclusive: 15.8 µM [rising, partial curve, poor fit]"}]}, {"smiles": "COc1ccn(C)c(=O)c1C#N", "values": [{"measurement": "activity change, negative = inhibition", "setting": "[1]", "value": "inconclusive: -8.14%"}]}, {"smiles": "O=C1CC[C@@]2(O)[C@H]3Cc4ccc(O)c5c4[C@@]2(CCN3CC2CC2)[C@@H]1O5", "values": [{"measurement": "activity change, negative = inhibition", "setting": "[1]", "value": "inconclusive: -11.5%"}, {"measurement": "activity change, negative = inhibition", "setting": "at 38.2 µM (top of the series)", "value": "inactive: -7.62%"}]}, {"smiles": "Cn1c(O)c(C=NCCOc2ccc(Cl)cc2)c(=O)n(C)c1=O", "values": [{"measurement": "Potency", "setting": "[1]", "value": "active: 10 µM"}]}, {"smiles": "Nc1nc(N)c(N=Nc2ccc([As](=O)(O)O)c(O)c2)c(N)n1", "values": [{"measurement": "activity change, negative = inhibition", "setting": "[1]", "value": "inactive: 4.22% [at 7.6 µM]"}]}, {"smiles": "CCN(CC)C(=O)N[C@H]1C[C@H]2c3cccc4[nH]cc(c34)C[C@@H]2N(C)C1", "values": [{"measurement": "activity change, negative = inhibition", "setting": "[1]", "value": "inactive"}]}, {"smiles": "Nc1ccccc1C(=O)OC1CSC1", "values": [{"measurement": "activity change, negative = inhibition", "setting": "[1]", "value": "inactive"}]}, {"smiles": "Nc1ccc([N+](=O)[O-])cc1N", "values": [{"measurement": "activity change, negative = inhibition", "setting": "[1]", "value": "inconclusive: -13.1%"}]}, {"smiles": "CC(C)[C@@]1(NC(=O)[C@@H]2C[C@H]3c4cccc5[nH]cc(c45)C[C@@H]3N(C)C2)O[C@@]2(O)[C@H]3CCCN3C(=O)[C@H](Cc3ccccc3)N2C1=O", "values": [{"measurement": "Potency", "setting": "[1]", "value": "inconclusive: 15.8 µM [falling, partial curve, poor fit] and inconclusive: 794 nM [falling, partial curve, poor fit]"}]}, {"smiles": "CCOC(=O)C(O)(c1ccc(NC(=O)c2ccco2)c(OC)c1)C(F)(F)F", "note": "(configuration not stated)", "values": [{"measurement": "Potency", "setting": "[1]", "value": "inconclusive: 1 µM [rising, partial curve]"}]}, {"smiles": "C[C@@]1([C@@H](NP(=O)(c2ccccc2)c2ccccc2)c2ccccc2)C[C@H]1CCO", "values": [{"measurement": "activity change, negative = inhibition", "setting": "[1]", "value": "inactive"}]}, {"smiles": "Cc1oc2ccc(OC(=O)N(C)C)cc2c1C(=O)OC(C)C", "values": [{"measurement": "Potency", "setting": "[1]", "value": "inconclusive: 15.8 µM [rising, partial curve, poor fit]"}]}, {"smiles": "c1cncc(CNC2=NCCC2)c1", "values": [{"measurement": "activity change, negative = inhibition", "setting": "[1]", "value": "inconclusive: 0.814%"}]}, {"smiles": "O=C(O)[C@H]1C2c3ccccc3C(c3ccccc32)[C@@H]1C(=O)NCC1CC1", "values": [{"measurement": "activity change, negative = inhibition", "setting": "[1]", "value": "inactive: 0.0546% [at 7.6 µM]"}]}, {"smiles": "Clc1cccc(N2CCNCC2)c1", "values": [{"measurement": "activity change, negative = inhibition", "setting": "[1]", "value": "inactive"}]}, {"smiles": "CCOCC(=O)NC1CCSC1=O", "note": "(configuration not stated)", "values": [{"measurement": "activity change, negative = inhibition", "setting": "[1]", "value": "inactive"}]}, {"smiles": "Cc1[nH]c2ccccc2c1/C=N/O", "values": [{"measurement": "activity change, negative = inhibition", "setting": "[1]", "value": "inconclusive: 13.2%"}]}, {"smiles": "Cc1cc(OCC(=O)Nc2c(C)n(C)n(-c3ccccc3)c2=O)c2c3c(c(=O)oc2c1)CCC3", "values": [{"measurement": "activity change, negative = inhibition", "setting": "[1]", "value": "inactive"}]}, {"smiles": "CCC(=NCc1ccc(F)cc1)c1c(O)n(C)c(=O)n(C)c1=O", "values": [{"measurement": "Potency", "setting": "[1]", "value": "inconclusive: 6.31 µM [rising, partial curve]"}]}, {"smiles": "O=P(O)(O)C#Cc1ccccc1", "values": [{"measurement": "activity change, negative = inhibition", "setting": "[1]", "value": "inactive"}]}, {"smiles": "CP(C)(=O)CCC(=O)O", "values": [{"measurement": "Potency", "setting": "[1]", "value": "inconclusive: 1 µM [falling, single point]"}]}, {"smiles": "Oc1c(Br)cc(Br)cc1Br", "values": [{"measurement": "Potency", "setting": "[1]", "value": "inconclusive: 15.8 µM [rising, partial curve, poor fit]"}]}, {"smiles": "CC(C)C[C@H]1C(=O)N2CCC[C@@H]2[C@@]2(O)O[C@](NC(=O)[C@@H]3C=C4c5cccc6[nH]cc(c56)C[C@@H]4N(C)C3)(C(C)C)C(=O)N12", "values": [{"measurement": "Potency", "setting": "[1]", "value": "inconclusive: 5.01 µM [rising, single point]"}]}, {"smiles": "C[C@]1(C(=O)O)[C@@H]2CC[C@@H](O2)[C@@]1(C)C(=O)O", "values": [{"measurement": "Potency", "setting": "[1]", "value": "inconclusive: 0.631 µM [rising, full curve, poor fit]"}]}, {"smiles": "c1ccc2c(CCNC3=NCCC3)c[nH]c2c1", "values": [{"measurement": "activity change, negative = inhibition", "setting": "[1]", "value": "inconclusive: -14.1%"}]}, {"smiles": "COc1cccc(N2CCN(Cc3ccc(Cl)cc3)CC2)c1", "values": [{"measurement": "activity change, negative = inhibition", "setting": "[1]", "value": "inactive"}]}, {"smiles": "CN1CCN(C(=O)O[C@@H]2c3nccnc3C(=O)N2c2ccc(Cl)cn2)CC1", "values": [{"measurement": "activity change, negative = inhibition", "setting": "[1]", "value": "inconclusive: 8.02%"}]}, {"smiles": "CCOC(=O)N1CCN(C(C)C(=O)c2c[nH]c3ccccc23)CC1", "note": "(configuration not stated)", "values": [{"measurement": "activity change, negative = inhibition", "setting": "[1]", "value": "inconclusive: -9.35%"}]}, {"smiles": "CC[C@@]1(O)C(=O)OCc2c1cc1n(c2=O)Cc2cc3ccccc3nc2-1", "values": [{"measurement": "activity change, negative = inhibition", "setting": "at 17.1 µM (top of the series)", "value": "inconclusive: 4.33%"}, {"measurement": "activity change, negative = inhibition", "setting": "at 38.2 µM (top of the series)", "value": "inactive: -12.1% and inconclusive: -16.7%"}]}, {"smiles": "CC(C)c1ccc(O)c(CN2CCN(c3ccccc3)CC2)c1", "values": [{"measurement": "activity change, negative = inhibition", "setting": "[1]", "value": "inconclusive: -4.65%"}]}, {"smiles": "N[C@@H](Cc1c[nH]c2ccccc12)c1nnc(SCc2ccccc2)o1", "values": [{"measurement": "activity change, negative = inhibition", "setting": "[1]", "value": "inconclusive: -1.49%"}]}, {"smiles": "C/C=C1\\C[C@H](C)[C@](O)(CO)C(=O)OCC2=CCN3CC[C@@H](OC1=O)[C@@H]23", "values": [{"measurement": "activity change, negative = inhibition", "setting": "[1]", "value": "inconclusive: -5.25%"}]}, {"smiles": "CC[C@@H]1CN2CCc3cc(OC)c(OC)cc3[C@H]2C[C@@H]1C[C@@H]1NCCc2cc(O)c(OC)cc21", "values": [{"measurement": "activity change, negative = inhibition", "setting": "[1]", "value": "inconclusive: -23.2% [at 17.1 µM]"}]}, {"smiles": "Cc1cc(OCC(=O)OC(C)(C)C)c2c3c(c(=O)oc2c1)CCC3", "values": [{"measurement": "activity change, negative = inhibition", "setting": "[1]", "value": "inactive"}]}, {"smiles": "Cc1nc2ccccc2c(=O)n1-n1cnnc1", "values": [{"measurement": "activity change, negative = inhibition", "setting": "[1]", "value": "inconclusive: 18%"}]}, {"smiles": "Cc1c(C(=O)c2cccc3ccccc23)c2cccc3c2n1[C@H](CN1CCOCC1)CO3", "values": [{"measurement": "activity change, negative = inhibition", "setting": "[1]", "value": "inconclusive: -25.4%"}]}, {"smiles": "C1=C(c2c[nH]c3ccccc23)CCNC1", "values": [{"measurement": "activity change, negative = inhibition", "setting": "[1]", "value": "inconclusive: 0.696%"}]}, {"smiles": "O=Cc1ccccc1", "values": [{"measurement": "activity change, negative = inhibition", "setting": "[1]", "value": "inactive"}]}, {"smiles": "C=CCN1C(=O)C2(C(C(=O)OCC)=C(N)Oc3ccccc32)C2=C1CCCC2=O", "note": "(configuration not stated)", "values": [{"measurement": "activity change, negative = inhibition", "setting": "[1]", "value": "inconclusive: -15.1%"}]}, {"smiles": "Cc1o[nH]c(=O)c1C[C@@H](N)C(=O)O", "values": [{"measurement": "activity change, negative = inhibition", "setting": "[1]", "value": "inactive"}]}, {"smiles": "COc1ccc(OC)c(C2=NOC(C(=O)N3CCC4(CC3)OCCO4)C2)c1", "note": "(configuration not stated)", "values": [{"measurement": "activity change, negative = inhibition", "setting": "[1]", "value": "inconclusive: 0.544%"}]}]}
